The source of these data is PMC4336329 (PLoS ONE, 2015).

Screen size: about 310,000 compounds; about 14,000 (4.5%) showed an effect of 50% or more. The effect is printed as a negative number. This is one part of the list.
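Further: peak tail current of the secondary pulse compared with the same well before compound.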

The target in this experiment is human ether-à-go-go-related gene (hERG) potassium channel (human, UniProt Q12809). Kind of experiment: primary screen, population patch clamp on CHO cells stably expressing hERG.
Sequence of human ether-à-go-go-related gene (hERG) potassium channel (Q12809 whole entry, looked up): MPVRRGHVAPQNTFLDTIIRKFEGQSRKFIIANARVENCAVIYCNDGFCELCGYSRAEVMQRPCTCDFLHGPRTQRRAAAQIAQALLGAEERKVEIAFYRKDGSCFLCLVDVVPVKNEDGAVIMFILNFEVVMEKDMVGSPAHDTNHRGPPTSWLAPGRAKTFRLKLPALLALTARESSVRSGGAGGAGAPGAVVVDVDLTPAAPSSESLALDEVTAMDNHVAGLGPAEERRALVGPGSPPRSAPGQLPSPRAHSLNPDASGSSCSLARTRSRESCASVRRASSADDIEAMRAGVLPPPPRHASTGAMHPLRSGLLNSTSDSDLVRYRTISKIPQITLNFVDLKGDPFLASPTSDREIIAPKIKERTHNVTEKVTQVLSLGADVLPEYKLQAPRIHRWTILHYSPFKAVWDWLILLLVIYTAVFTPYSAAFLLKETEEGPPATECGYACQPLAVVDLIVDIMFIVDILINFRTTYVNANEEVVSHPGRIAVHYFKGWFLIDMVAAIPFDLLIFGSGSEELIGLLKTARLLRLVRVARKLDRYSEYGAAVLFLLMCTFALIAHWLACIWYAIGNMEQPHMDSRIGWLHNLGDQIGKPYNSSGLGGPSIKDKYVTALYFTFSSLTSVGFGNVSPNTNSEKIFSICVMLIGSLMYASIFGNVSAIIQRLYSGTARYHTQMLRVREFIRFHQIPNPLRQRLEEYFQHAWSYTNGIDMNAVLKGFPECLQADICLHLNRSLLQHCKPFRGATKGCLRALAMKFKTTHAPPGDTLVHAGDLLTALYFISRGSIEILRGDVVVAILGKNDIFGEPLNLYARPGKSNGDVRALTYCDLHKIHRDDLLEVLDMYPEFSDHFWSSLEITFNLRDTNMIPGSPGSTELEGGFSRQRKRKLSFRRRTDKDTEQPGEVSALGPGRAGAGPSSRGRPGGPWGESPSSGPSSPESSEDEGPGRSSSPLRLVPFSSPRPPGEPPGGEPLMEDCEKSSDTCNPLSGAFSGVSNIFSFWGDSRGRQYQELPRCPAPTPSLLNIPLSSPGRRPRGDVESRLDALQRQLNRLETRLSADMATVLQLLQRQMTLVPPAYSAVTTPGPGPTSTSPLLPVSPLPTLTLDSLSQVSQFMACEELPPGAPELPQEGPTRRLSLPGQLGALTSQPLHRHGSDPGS
As to `O=C(NCCc1ccccn1)c1cc2ccccc2o1`, the “hERG current change (%, negative = inhibition) at 10uM” value was found to be 21.5%.

On to `O=C(Nc1ccc(S(=O)(=O)Nc2ncccn2)cc1)c1ccccc1Br`, for which the “hERG current change (%, negative = inhibition) at 10uM” value turned out to be 0.459%.

Turning to `O=C(Nc1ccccc1)c1cc2ccccc2c(=O)s1`, the “hERG current change (%, negative = inhibition) at 10uM” value worked out at 3.74%.

`Cc1ccc(NC(=O)CN(C)S(=O)(=O)c2cccc3nsnc23)cc1C`: the “hERG current change (%, negative = inhibition) at 10uM” value stood at 15.9%.

`COc1ccc(S(=O)(=O)N(C)C)cc1NC(C)C(=O)Nc1cccc(C#N)c1` (stereo not drawn): the “hERG current change (%, negative = inhibition) at 10uM” value is on record as -23.5%.

Take `CC(=O)Nc1ccc(S(=O)(=O)NCCC(=O)OCCN2C(=O)c3ccccc3C2=O)cc1`: the “hERG current change (%, negative = inhibition) at 10uM” value stood at 6.14%.

In the case of `Clc1ccc(-n2nnnc2CN2CCCCC2)cc1Cl`, the “hERG current change (%, negative = inhibition) at 10uM” value is given as -5.69%.

With `CC(=O)C1=C(O)C(=O)N(Cc2ccccc2)C1c1ccc(Br)cc1` (stereo not drawn), the “hERG current change (%, negative = inhibition) at 10uM” value worked out at 6.34%.

Regarding `COC1(C2=NCCN2)COc2ccccc2O1.Cl` (stereo not drawn), the “hERG current change (%, negative = inhibition) at 10uM” value is recorded as 17.3%.

`O=C(COc1ccc(S(=O)(=O)N2CCCC2)cc1)N1CCCCC1`: the “hERG current change (%, negative = inhibition) at 10uM” value is 12.3%.

With `Cc1ccc2nc(-c3ccccn3)cc(C(=O)Nc3ccc4c(c3)OCO4)c2c1`, the “hERG current change (%, negative = inhibition) at 10uM” value was determined as 20.6%.

With `Cc1cc(N2CCN(C)CC2)nc2ccc(NC(=O)CCC3CCCC3)cc12`, the “hERG current change (%, negative = inhibition) at 10uM” value is given as -74.6%.

For `CCC(=O)Oc1ccc(C(=O)Nc2ccc3c(c2)OCO3)cc1`, the “hERG current change (%, negative = inhibition) at 10uM” value is given as 16.5%.

As for `O=C(Oc1c(Cl)cc(Cl)c2cccnc12)N1CCOCC1`, the “hERG current change (%, negative = inhibition) at 10uM” value is reported as -9.04%.

Take `CCC(C(=O)NCc1cccc(C)c1)n1nc(C)c2c(C)n(-c3ccccc3)nc2c1=O` (stereo not drawn): the “hERG current change (%, negative = inhibition) at 10uM” value is -21.8%.

In the case of `CCOc1ccc(CCNC(=O)COC(=O)c2ccc(S(C)(=O)=O)cc2)cc1OCC`, the “hERG current change (%, negative = inhibition) at 10uM” value was found to be 7.31%.

As for `CCC1CCCCN1C(=O)CCn1c(=O)oc2ccccc21` (stereo not drawn), the “hERG current change (%, negative = inhibition) at 10uM” value was -17.7%.

Regarding `COCCNC(=O)c1ccc(Cl)c(S(=O)(=O)Nc2cccc(C)c2C)c1`, the “hERG current change (%, negative = inhibition) at 10uM” value was -5.86%.

Regarding `Cc1cc(C)cc(NC(=O)CSc2nncn2-c2ccccn2)c1`, the “hERG current change (%, negative = inhibition) at 10uM” value stood at 0.338%.

Take `COc1cc(OC)c2ccc(=O)oc2c1C(CC(=O)N1CCOCC1)c1ccc2c(c1)OCO2` (stereo not drawn): the “hERG current change (%, negative = inhibition) at 10uM” value was -0.731%.

Turning to `C/C(=N\NC(=O)C(NC(=O)c1ccccc1)C(C)C)c1ccccc1` (stereo not drawn), the “hERG current change (%, negative = inhibition) at 10uM” value is reported as 21.2%.

Consider `CSc1ccc(CN(C)C(=O)CSCC(=O)Nc2ccc(C)cc2)cc1`, for which the “hERG current change (%, negative = inhibition) at 10uM” value is recorded as -73%.

As to `Cc1ccnc(NC(=O)CCC(=O)c2cc(C)sc2C)c1`, the “hERG current change (%, negative = inhibition) at 10uM” value came to 11.5%.

In the case of `CN(c1ccccc1)S(=O)(=O)c1ccc(C(=O)N2CCCC(C(F)(F)F)C2)cc1` (stereo not drawn), the “hERG current change (%, negative = inhibition) at 10uM” value stood at 5.9%.

With `CCCn1c(SCC(=O)Nc2cc(C)on2)nc2c1c(=O)n(C)c(=O)n2C`, the “hERG current change (%, negative = inhibition) at 10uM” value is -4.46%.

In the case of `CCOc1ccc(CN(C(=O)c2oc3cc(C)ccc3c2C)C2CCS(=O)(=O)C2)cc1` (stereo not drawn), the “hERG current change (%, negative = inhibition) at 10uM” value was -10%.

Take `O=C(Nc1sc2c(c1C(=O)NCC1CCCO1)CCCC2)c1cccs1` (stereo not drawn): the “hERG current change (%, negative = inhibition) at 10uM” value is recorded as 11.7%.

For the compound `O=C(CO/N=C/c1c(Cl)cccc1Cl)NNC(=O)c1ccc(Cl)cc1`, the “hERG current change (%, negative = inhibition) at 10uM” value was determined as 8.46%.

In the case of `COc1ccc(NC(=O)CCNS(=O)(=O)c2cccc3nonc23)cc1`, the “hERG current change (%, negative = inhibition) at 10uM” value is on record as 1.82%.

As to `Cc1ccc(-n2c(N)c(C#N)c(-c3ccccc3)c(C#N)c2=O)cc1`, the “hERG current change (%, negative = inhibition) at 10uM” value came to 1.05%.

Turning to `CN1C(=O)C(O)(C2COC(C)(C)CC2=O)c2ccccc21` (stereo not drawn), the “hERG current change (%, negative = inhibition) at 10uM” value stood at 4.26%.

In the case of `O=C(NC(=S)NCC1CCCO1)c1ccc(Cl)cc1` (stereo not drawn), the “hERG current change (%, negative = inhibition) at 10uM” value was -7.34%.

Turning to `O=C(COc1ncnc2ccccc12)Nc1ccc(Cl)c(S(=O)(=O)N2CCOCC2)c1`, the “hERG current change (%, negative = inhibition) at 10uM” value is -13.5%.

On to `O=S(=O)(NCc1cc(-c2ccc(Cl)cc2)no1)c1ccc(Cl)cc1`, for which the “hERG current change (%, negative = inhibition) at 10uM” value is given as -1.55%.

On to `Cc1ccc(C)c(N2CCN(C(c3ccc(N(C)C)cc3)c3nnnn3C(C)(C)C)CC2)c1` (stereo not drawn), for which the “hERG current change (%, negative = inhibition) at 10uM” value is on record as 8.2%.

On to `O=C(c1ccc(C(F)(F)F)cc1)C1CCCN(C(=O)CCN2CCCO2)C1` (stereo not drawn), for which the “hERG current change (%, negative = inhibition) at 10uM” value was -11.9%.

In the case of `Cc1ccccc1CSCc1nc2ccccc2[nH]1`, the “hERG current change (%, negative = inhibition) at 10uM” value is -3.08%.

`COc1ccc(OCCNC(=O)c2ccccc2Cl)cc1`: the “hERG current change (%, negative = inhibition) at 10uM” value was found to be 7.62%.

Regarding `Cc1ccc2oc(=O)cc(CN3CCCCC3)c2c1`, the “hERG current change (%, negative = inhibition) at 10uM” value was determined as 15.9%.

Regarding `Cc1csc(=O)n1CC(=O)OCC(=O)Nc1cc(S(=O)(=O)N2CCOCC2)ccc1Cl`, the “hERG current change (%, negative = inhibition) at 10uM” value is reported as -5.05%.

As for `CC(=O)Nc1ccc(S(=O)(=O)NCC(=O)OCC(=O)NC(=O)c2cccn2C)cc1`, the “hERG current change (%, negative = inhibition) at 10uM” value was -2.65%.

As to `CC(CNC(=O)c1cc(COc2c(F)cccc2F)on1)Oc1cccnc1` (stereo not drawn), the “hERG current change (%, negative = inhibition) at 10uM” value is recorded as -18.6%.
